Results: patent publication US7592316B2, “Peptides as NS3-serine protease inhibitors of hepatitis C virus” (Schering Corporation, priority 2000, dated 2009)

biological target: HCV NS3/NS4A protease (strain 1a) (Hepatitis C virus genotype 1a, UniProt P27958); test: biochemical; settings: Table 5; HCV NS3/NS4A protease, 30° C., pH 6.5; read-out: Ki* Range

Ki | SMILES
1 to 100 nM | C=CCNC(=O)C(=O)C(CCC)NC(=O)[C@@H]1C2C(CN1C(=O)[C@@H](NC(=O)OC1CCCC1C)C1Cc3ccccc3C1)C2(C)C (stereo partly drawn)
1 to 100 nM | C=CCCC(NC(=O)[C@@H]1[C@@H]2[C@H](CN1C(=O)[C@@H](NC(=O)NC(C)(C)C)C1CCCCC1)C2(C)C)C(=O)C(=O)NCCS(=O)(=O)C1CCCC1 (stereo partly drawn)

same assay, conditions: Table 5; HCV NS3/NS4A protease, spectrophotometric assay, 30° C., pH 6.5; read-out: Ki* Range

Ki | SMILES
101 to 1000 nM | CC(C)C(NC(=O)OC(C)(C)C)C(=O)N1C[C@H]2[C@@H]([C@H]1C(=O)NC(CC1CC1)C(=O)C(N)=O)C2(C)C (stereo partly drawn)
> 1000 nM | CC(C)(C)OC(=O)CCNC(=O)C(=O)C(CC1CCC1)NC(=O)[C@@H]1C2C(CN1C(=O)C(NC(=O)OC(C)(C)C)C(C)(C)C)C2(C)C (stereo partly drawn)
101 to 1000 nM | CC(C)CC(NC(=O)[C@@H]1[C@@H]2[C@H](CN1C(=O)[C@@H](NC(=O)OC(C)(C)C)C1CCCCC1)C2(C)C)C(=O)C(N)=O (stereo partly drawn)
1 to 100 nM | CC(C)(C)[C@H](NC(=O)NC1CCCCC1)C(=O)N1C[C@H]2[C@@H]([C@H]1C(=O)NC(CC1CC1)C(=O)C(N)=O)C2(C)C (stereo partly drawn)

The next lines start with the molecule.

SMILES | Ki
CCCC(NC(=O)C1C2CC(C3CC32)N1C(=O)C(NC(=O)OC(C)(C)C)C(C)(C)C)C(=O)C(=O)NCC(=O)N[C@@H](C(=O)N(C)C)c1ccccc1 (stereo partly drawn) | > 1000 nM
C=CCC(NC(=O)[C@@H]1[C@H]2[C@H](CN1C(=O)[C@@H](NC(=O)OC(C)(C)C)C(C)(C)C)C2(C)C)C(=O)C(=O)NCC(=O)NCc1ccc(Br)cc1 (stereo partly drawn) [drawing 1785] | > 1000 nM
C=CCCC(NC(=O)[C@@H]1[C@@H]2[C@H](CN1C(=O)[C@@H](NC(=O)OC13CC4CC(CC(C4)C1)C3)C1CCCCC1)C2(C)C)C(=O)C(=O)NCC=C (stereo partly drawn) | 101 to 1000 nM
C=CCC(NC(=O)[C@@H]1[C@@H]2[C@H](CN1C(=O)[C@@H](NC(=O)OC(C)(C)C)C(C)(C)C)C2(C)C)C(=O)C(=O)NCC(=O)NCc1ccc(C)cc1 (stereo partly drawn) | 1 to 100 nM
C=CCCC(NC(=O)[C@@H]1[C@@H]2[C@H](CN1C(=O)[C@@H](NC(=O)OC(C)(C)C)C1Cc3ccccc3C1)C2(C)C)C(=O)C(=O)NCC=C (stereo partly drawn) | 101 to 1000 nM
C=CCNC(=O)C(=O)C(CCC)NC(=O)[C@@H]1[C@H]2[C@@H](CN1C(=O)[C@@H](NC(=O)OCC(C)(C)C)C1Cc3ccccc3C1)C2(C)C (stereo partly drawn) | 101 to 1000 nM
CCCC(NC(=O)[C@@H]1[C@@H](OC(C)(C)C)CCN1C(=O)[C@@H](NC(=O)OC(C)(C)C)C(C)(C)C)C(=O)C(=O)NCC(=O)NC(C(=O)N(C)C)c1ccccc1 (stereo partly drawn) (Boc-[Tle][Pro(trans-3-OtBu)][X2]G[ξPhg]-NMe2) | > 1000 nM
C=CCNC(=O)C(=O)C(CCC)NC(=O)[C@@H]1C2C(CN1C(=O)C(CCC(=O)OC(C)(C)C)NC(=O)OCC(C)C)C2(C)C (stereo partly drawn) | > 1000 nM

same assay, conditions: Table 6; HCV NS3/NS4A protease, 30° C., pH 6.5; read-out: Ki*

Ki | SMILES
1 to 100 nM | C[C@@H](NC(=O)N[C@H](C(=O)N1C[C@H]2[C@@H]([C@H]1C(=O)NC(CC1CCC1)C(=O)C(N)=O)C2(C)C)C(C)(C)C)C(C)(C)C (stereo partly drawn)
1 to 100 nM | CCCC(NC(=O)[C@@H]1[C@@H]2[C@H](CN1C(=O)[C@@H](NC(=O)OC(C)(C)C(F)(F)F)C1CCCCC1)C2(Cl)Cl)C(=O)C(N)=O (stereo partly drawn)
1 to 100 nM | CC(C)(C#N)OC(=O)N[C@H](C(=O)N1C[C@H]2[C@@H]([C@H]1C(=O)NC(CC1CC1)C(=O)C(N)=O)C2(Cl)Cl)C(C)(C)C (stereo partly drawn)
101 to 1000 nM | CC(C)(C)OC(=O)N[C@H](C(=O)N1CC2C([C@H]1C(=O)NC(CC1CCC1)C(=O)C(=O)NCC(=O)NCc1ccccc1)C2(C)C)C1CCCCC1 (stereo partly drawn)

More lines, now with the values behind:

SMILES | Ki
NC(=O)C(=O)C(CC1CCC1)NC(=O)[C@@H]1[C@@H]2[C@H](CN1C(=O)[C@@H](NC(=O)NC13CC4CC(CC(C4)C1)C3)C1CCCCC1)C2(Cl)Cl (stereo partly drawn) | 1 to 100 nM
CN(C)C(=O)[C@@H](NC(=O)CNC(=O)C(=O)C(CC1CC1)NC(=O)[C@@H]1[C@H]2CC3(CC3)C[C@H]2CN1C(=O)[C@@H](NC(=O)OC(C)(C)C)C(C)(C)C)c1ccccc1 (stereo partly drawn) | 1 to 100 nM
CCCC(NC(=O)[C@@H]1[C@@H]2[C@H](CN1C(=O)[C@@H](NC(=O)OC(C)(C)C)C1Cc3ccccc3C1)C2(C)C)C(=O)C(=O)NCCC(=O)N(C)C(C)(C)C (stereo partly drawn) | 101 to 1000 nM
CCCC(NC(=O)[C@@H]1[C@@H]2[C@H](CN1C(=O)[C@@H](NC(=O)OC(C)(C)C)C1Cc3ccccc3C1)C2(C)C)C(=O)C(=O)N[C@@H](C)c1ccccc1 (stereo partly drawn) | 1 to 100 nM
CC1C[C@H]2CN(C(=O)[C@@H](NC(=O)OC(C)(C)C)C(C)(C)C)[C@H](C(=O)NC(CC3CCC3)C(=O)C(=O)NCC(=O)N[C@H](C(=O)N(C)C)c3ccccc3)[C@H]2CC1C (stereo partly drawn) | 1 to 100 nM
CC(C)(C)NC(=O)N[C@H](C(=O)N1C[C@H]2[C@@H]([C@H]1C(=O)NC(C(=O)C(=O)NCC(=O)NCc1ccccc1)C1CCC1)C2(C)C)C(C)(C)C (stereo partly drawn) | 1 to 100 nM

*1 amine or outer side, *2 acyl side, *3 side chain or, on linkers, in order; H or OH if unused. Where a SMILES comes first, the peptide text is derived from it. [ ]: non-standard residue; d: D form. The star is where a group is joined. ξ: configuration not given here. Pro(trans-3-OtBu) = CC(C)(C)O[C@H]1CCN[C@@H]1C(=O)O; X2 = CCCC(N[*:1])C(=O)C(=O)[*:2]; Tle = CC(C)(C)[C@H](N)C(=O)O; ξPhg = NC(C(=O)O)c1ccccc1; Boc = CC(C)(C)OC(=O)*
